Measured values from PubChem BioAssay AID1240 (Sanford-Burnham Center for Chemical Genomics, 2008).
Among all 50,000 compounds or so, about 800 (1.6%) showed an effect of 50% or more. The list shows a part of the results.

target: Bcl-2-like protein 10 (Homo sapiens) (UniProt Q9HD36); test: TR3 peptide-Bcl-B binding displacers, biochemical primary FP assay, phenotype converters (AID 1240); conditions: GST-Bcl-B / FITC-TR3 peptide fluorescence polarization; stronger effect = higher value; compound at 3.75 mg/L;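 further: 0% = Bcl-B with tracer peptide and DMSO and 100% = tracer peptide lacking Bcl-B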
Sequence of UniProt Q9HD36 (Q9HD36 whole entry, looked up): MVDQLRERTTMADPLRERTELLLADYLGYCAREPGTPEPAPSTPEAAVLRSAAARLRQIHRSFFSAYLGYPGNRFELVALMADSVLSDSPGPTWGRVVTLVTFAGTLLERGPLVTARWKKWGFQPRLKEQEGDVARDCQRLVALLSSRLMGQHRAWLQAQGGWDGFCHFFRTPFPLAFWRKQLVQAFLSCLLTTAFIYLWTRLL

| SMILES | displacement [%] |
| --- | --- |
| CCC(C(=O)Nc1cc(C(=O)OC)cc(C(=O)OC)c1)c1ccccc1 (centres undefined) | 3 |
| COc1ccc(O)c(CN2CCN(Cc3ccccc3[N+](=O)[O-])CC2)c1 | 19.6 |
| O=C(/C=C/c1ccco1)/C=C/c1ccc(-c2ccc(Cl)c(Cl)c2)o1 | -23 |
| Cc1ccc(-n2nc3ccc(NC(=S)NC(=O)c4ccccc4Cl)cc3n2)cc1Cl | 14.7 |
| Cc1ccc(S(=O)(=O)NCCOc2ccccc2Cl)cc1[N+](=O)[O-] | 13 |
| COc1ccccc1CC(=O)Nc1ccc(Br)cc1C(=O)O | -0.9 |
| O=C(O)CCCCCN1C(=O)C(=O)/C(=C(/O)c2ccc(F)cc2)C1c1ccccc1Cl (centres undefined) | -4.5 |
| N#C/C(=C/c1ccc(Sc2ccccc2)o1)C(=O)Nc1ccc(F)cc1 | -1.7 |
| Cc1ccccc1C(=O)Nc1cccc(NC(=O)COc2ccc(Cl)cc2Cl)c1 | -13.4 |
| C/C(=N\NC(=O)C1(C)CC1(Br)Br)c1ccncc1 (centres undefined) | -6.4 |
| O=C1ON=C(c2ccc(Cl)cc2)/C1=C/C=C/c1ccccc1 | -18.8 |
| Cc1cc(C)n(-c2cc(N/N=C/c3cccc(F)c3)nc(C)n2)n1 | -11.3 |
| O=C(NCc1ccccn1)C(=O)Nc1nccs1 | -18 |
| O=C1N=c2ccccc2=C1c1s/c(=N\Nc2ccccc2)n(-c2ccccc2)c1O | -4.3 |
| COc1ccc(C(=O)NNC(=O)c2cccc(C)c2)c(OC)c1 | 3.3 |
| COc1ccccc1C(=O)Nc1cc(-c2nc3ncccc3o2)ccc1C | 24 |
| CC(C)C(=O)Nc1ccc2c3c(cccc13)CC2 | 11.2 |
| CCCOC(=O)c1ccc(NC(=O)OC)cc1 | -1.5 |
| CCCC1CCc2c(sc(NC(=O)c3ccccc3F)c2C(N)=O)C1 (centres undefined) | 2.6 |
| O=C1CC(Cc2ccc(Cl)cc2)C(=O)N1c1ccc(F)cc1 (centres undefined) | -10.1 |
| Cc1ccc(NC(=O)c2cccc(F)c2)cc1C | 2.2 |
| COc1ccc(-c2nc(-c3ccccc3)c(-c3cc([N+](=O)[O-])ccc3C)[nH]2)c(OC)c1 | 11 |
| Brc1cccc(-c2nnc(-c3ccc4c(c3)OCO4)o2)c1 | 2 |
| Cc1ccc(C(=O)N2CCN(c3ccc([N+](=O)[O-])cc3)CC2C)cc1 (centres undefined) | 7.8 |
| C=CCNC(=O)CN(Cc1ccccc1)S(=O)(=O)c1ccc(OC)cc1 | -7.4 |
| Cc1[nH]n(-c2ccccc2)c(=O)c1C(c1ccc(OC(=O)c2ccccc2F)cc1)c1c(C)[nH]n(-c2ccccc2)c1=O | 6.6 |

| SMILES | displacement [%] |
| --- | --- |
| COc1cccc(/C=C(\C#N)c2nc3ccc(C)cc3[nH]2)c1OCC(=O)O | 1.6 |
| COC(=O)C1=C(C)N(C)C(C)=C(C(=O)OC)C1c1ccc(C)c([N+](=O)[O-])c1 | -5.8 |
| O=C(COc1ccc(Br)cc1)Nc1nc2ccccc2s1 | 2.7 |
| COc1cc(/C=C2/SC(=S)N(CCC(=O)Nc3ccccc3C(F)(F)F)C2=O)cc(OC)c1OC | 18 |
| COc1cc(NC(=O)c2cncc(Br)c2)c(OC)cc1Cl | 14.9 |
| Nc1sc2c(c1C(=O)Nc1ccccc1Cl)CCC2 | -5.4 |
| O=C(O)c1ccc(Br)c(S(=O)(=O)Nc2ccc(NC(=O)c3ccccc3)cc2)c1 | 3.9 |
| O=C1c2cccc3cccc(c23)C(=O)N1CCCN1CCCCC1 | 3.1 |
| O=C1/C(=c2\sc3nc4ccccc4n3c2=O)c2ccccc2N1Cc1ccccc1 | -7.1 |
| CCOC(=O)C1=C(O)/C(=C/c2ccc(Cl)c(Cl)c2)SC1=Nc1ccc([N+](=O)[O-])cc1 | -5.5 |
| O=C(O)CCCCCN1C(=O)C(=O)/C(=C(/O)c2ccc(F)cc2)C1c1ccccc1 (centres undefined) | -4.1 |
| CNC(=O)/C(=C\c1ccc(Cl)cc1)NC(=O)c1ccccc1 | 1.1 |
| CCN(CC)c1ccc(N2C(=O)/C(=C/C=C/c3ccccc3)SC2=S)cc1 | -4.2 |
| O=C(NCCCN1CCOCC1)c1ccccc1Br | 2.7 |
| Cc1ccc(/C=C2\SC(=S)N(Nc3ccccc3)C2=O)o1 | -9.4 |
| O=C(N/N=C/c1ccc(Cl)c([N+](=O)[O-])c1)/C(=C\c1ccc2c(c1)OCO2)NC(=O)c1ccccc1 | -5.8 |
| CCOc1ccccc1NC(=O)C(=O)NCCc1ccccc1 | 8.7 |
| CC(C)c1cc(Nc2nccs2)cc(C(C)C)c1O | 5.5 |
| c1ccc2c(c1)c1ccccc1n2CCCN1CCCCC1 | -6 |
| COc1ccc(Cn2c(SC)nc3ccccc32)cc1 | 12.8 |
| N=C1C(c2nc3ccccc3c(=O)[nH]2)=C(O)CN1c1ccc2c(c1)OCO2 | 5.9 |
| CC1=C(C(=O)Nc2ccccc2)C(c2ccc(-c3ccccc3)cc2)NC(=S)N1 (centres undefined) | -6.4 |
| O=C(CSCC(=O)Nc1ccccc1)NCc1ccco1 | -20.8 |
| COc1ccccc1C1CC(c2c(-c3ccccc3)c3cc(Cl)ccc3[nH]c2=O)=NN1C(=O)CCC(=O)O (centres undefined) | 8.3 |
| COc1ccc(/C(O)=C2/C(=O)C(=O)N(c3ccccn3)C2c2cccnc2)cc1 (centres undefined) | -8.8 |
| O=[N+]([O-])c1ccccc1S(=O)(=O)N1CCC(Cc2ccccc2)CC1 | 1.4 |

| SMILES | displacement [%] |
| --- | --- |
| COc1ccc(OC(C)C(=O)Nc2ccc(S(N)(=O)=O)cc2)cc1 (centres undefined) | -5.3 |
| Cc1cc(C(=O)N2CCN(c3ccc(F)cc3)CC2)ccc1[N+](=O)[O-] | 5.1 |
| O=C1C2C3c4ccccc4C(c4ccccc43)C2C(=O)N1Cc1ccco1 (centres undefined) | -6.5 |
| O=C1/C(=C/c2cccc(Br)c2)SC(=S)N1CC(=O)N(CCO)c1ccccc1 | 11.4 |
| CC(=O)c1c(C)nc(C)c(C(C)=O)c1-c1ccccc1 | -2.9 |
| O=C(Nc1nnc(COc2ccc(Cl)cc2)s1)c1ccccc1F | 10.8 |
| O=C1c2ccc(S(=O)(=O)c3ccc4c(c3)C(=O)N(CCCO)C4=O)cc2C(=O)N1CCCO | 6.1 |
| CS(=O)(=O)N(CC(=O)Nc1cccc(Cl)c1)c1ccc(Br)cc1 | 1.7 |
| Nc1nc(O/N=C/c2ccc([N+](=O)[O-])cc2)nc(N2CCOCC2)n1 | -0.6 |
| O=C(O)COc1ccc2ccc(=O)oc2c1 | 12.8 |
| CN1C(=O)/C(=N\OC(=O)c2cccc3ccccc23)c2ccccc21 | 11 |
| CCOc1ccc(-c2csc(/C(C#N)=C/c3ccc(C)o3)n2)cc1 | -27.9 |
| O=C1N=c2ccccc2=C1c1s/c(=N/N=C2/C(=O)Nc3ccccc32)n(-c2ccc(O)cc2)c1O | 12.6 |
| COc1ccccc1C(=O)Oc1ccc2c(c1)C(C)=CC(C)(C)N2 | -2.1 |
| Cc1ccc(OC2=NS(=O)(=O)c3ccccc32)cc1 | -4.7 |
| Cc1cc2ncn(C(=O)c3cc([N+](=O)[O-])ccc3Cl)c2cc1C | 8.5 |
| Cc1cccc(N2C(=O)/C(=C/c3cccc([N+](=O)[O-])c3)SC2=S)c1C | 10 |
| Cc1ccc2nc(NC(=O)C3CC=CCC3C(=O)O)sc2c1 (centres undefined) | 1.8 |
| O=C(CSc1nc2ccc(Br)cc2c(=O)n1-c1ccccc1)Nc1ccccc1[N+](=O)[O-] | 10.1 |
| COc1ccc(/C=C/C(=O)NC(=S)Nc2ccccc2O)cc1 | 11.7 |
| COc1ccc(C2=C/C(=C\c3ccc([N+](=O)[O-])cc3)C(=O)O2)cc1 | -4.5 |
| COc1ccc(NC(=O)c2nn3c(c2Cl)NC(c2cccs2)CC3C(F)(F)F)cc1OC (centres undefined) | -1.3 |
| CC(C)C(Nc1nc2ncn(Cc3ccccc3)c2c(=O)[nH]1)C(=O)O (centres undefined) | 6.2 |
| COc1ccc(OCC(=O)Nc2cc(-c3nc4ccccc4o3)ccc2C)cc1 | 13.9 |
| O=C(O)CCCN1C(=O)C(=O)/C(=C(/O)c2ccccc2)C1c1ccccc1[N+](=O)[O-] (centres undefined) | 15.8 |
| COc1cc(/C=C2/SC(=S)N(c3ccccc3)C2=O)ccc1OC(=O)c1ccc(F)cc1 | 4.7 |

| SMILES | displacement [%] |
| --- | --- |
| Cc1ccc2nc3c(N)c(Cl)cc4c3c(c2c1)-c1ccccc1C4=O | 18.8 |
| COc1ccc(OC)c(N(CC(=O)NCCc2ccccc2)S(C)(=O)=O)c1 | 11.4 |
| C/C(=N\N=C\c1ccccc1)C1C(=O)c2ccccc2C1=O | 14.8 |
| O=C(c1ccc(F)cc1)c1ccc2c(c1)CCCO2 | -0.6 |
| CC1C(=NO)C(C)C(c2ccc(Cl)cc2)NC1c1ccc(Cl)cc1 (centres undefined) | -19.4 |
| CCOC(=O)C1=C(O)/C(=C/c2ccc(Cl)cc2)SC1=Nc1ccc(C)cc1 | 5.9 |
| Clc1ccccc1-c1nnc(-c2ccccc2Br)o1 | 9.7 |
| COc1ccccc1C(=O)Nc1ccc2oc(-c3cccc(C)c3)nc2c1 | 1.6 |
| CCOc1ccc(C(=O)N2CCN(c3ccc([N+](=O)[O-])cc3)CC2)cc1Cl | 13.9 |
| COc1ccc(N2C(=O)/C(=C/c3ccc(OCc4ccc(F)cc4)c(OC)c3)C(=O)NC2=S)cc1 | -3.3 |
| O=C(O)CN1C(c2ccccc2O)Nc2ccc(Br)cc2C1c1ccccc1 (centres undefined) | 16.2 |
| Cc1sc(NC(=O)CCCC(=O)O)nc1-c1ccccc1 | 2.5 |
| O=C(O)CCCCCN1C(=O)C(=O)/C(=C(/O)c2ccc(F)cc2)C1c1ccc([N+](=O)[O-])cc1 (centres undefined) | 1.3 |
| Cc1ccc(Cl)cc1NC1=CC(=O)CC(C)(C)C1 | 11.6 |
| COc1cccc(N2C(=O)CC(Sc3nc4ccccc4s3)C2=O)c1 (centres undefined) | 8.8 |
| COC(=O)c1c(C)oc2ccc(OCc3cccc(Cl)c3)cc12 | 3 |
| NC(=O)c1cc(S(=O)(=O)N2CCOCC2)ccc1Cl | -4.1 |
| COc1ccc2ccccc2c1/C=N/NC(=O)c1cccc(Br)c1 | -9 |
| CCOC(=O)C(=C/C=C/c1ccccc1)C(=O)OCC | -2.3 |
| CCOC(=O)c1c(C)oc2ccc(OC(=O)c3ccc(C)cc3)cc12 | 8.9 |
| CN(C)CCN1C(=O)C(=O)/C(=C(/O)c2ccccc2)C1c1ccccc1[N+](=O)[O-] (centres undefined) | 11.3 |
| Cc1cccc(NC(=O)CC2S/C(=N\N=C\c3cccc(O)c3)NC2=O)c1C (centres undefined) | 8.3 |
| COc1ccccc1CNCc1cc(OC)c(O)c(OC)c1 | -6.1 |
| O=C(NC(NC(=S)Nc1ccc(Cl)c(Cl)c1)C(Cl)(Cl)Cl)c1cccc([N+](=O)[O-])c1 (centres undefined) | -7.9 |
| COc1ccc(/C=C/C(=O)N2CCC(CN3C(=O)c4cccc5cccc(c45)C3=O)CC2)cc1OC | 21.3 |
| CC1=C(C(=O)OCC2CCCO2)C(c2c(F)cccc2Cl)C2=C(CC(C)(C)CC2=O)N1 (centres undefined) | 10.8 |
